PubChem BioAssay AID602393 (Broad Institute, 2012)
Among all 350,000 compounds or so, about 7,000 (2%) were called active. This list was built around the results that the source calls inconclusive (neither active nor inactive); the mix of calls is not that of the screen. No stated cut-off is given here; in the data, active means activation above about 40%; inconclusive means no clear call, values can overlap the other calls; inactive means below that.

Assay: raisers of Bmi1 knock-in reporter signal – mouse ES cells, Bmi1 luciferase knock-in, single point, esBAF inhibitor project, primary screen (AID 602393);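 further: 0% = median of the plate's neutral control wells and 100% = double that signal; a rise in the Bmi1 reporter signal indicates esBAF inhibition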
Settings: 24 h, at 12.5 µM, stronger effect = higher value, 100% = twice the neutral-well signal

Reporter increase, inactive:
O=C1C=C(C2CCCCC2)C(=O)c2ccccc21 5.8%
Cc1ccc(-n2cc(CNCCN3CCOC3=O)c(-c3ccc(F)cc3)n2)cc1 4.36%
O=S(=O)(NCC(Nc1ccc(Cl)cc1)c1ccccc1)c1ccccc1 (stereo not drawn) -3.75%
O=S(=O)(c1ccccc1)N1CCCCN2[C@@H](CO)[C@@H](c3ccc(-c4ccccc4F)cc3)[C@@H]2C1 -3.25%
O=C1c2ccccc2C(=Cc2cccnc2)c2ccccc21 20.3%
COCC(=O)N(C)C[C@H]1Oc2cc(C#C[C@@H](C)O)ccc2S(=O)(=O)N([C@H](C)CO)C[C@@H]1C 1.32%
COCC(=O)Nc1ccc2c(c1)[C@H]1C[C@H](CC(=O)N(C)C)O[C@@H](CO)[C@H]1O2 2.89%
O=[N+]([O-])c1ccc(/C=N/NC(=S)Nc2ccc(Cl)cc2Cl)s1 -8.73%
COC(=O)C(=O)Nc1nnc(COc2ccccc2)s1 3.09%
CCOC(=O)c1c(C2COc3ccccc3O2)csc1NC(=O)c1ccccc1 (stereo not drawn) -4.62%
O=C(Nc1ccc(Cl)c(Cl)c1)N[C@@H]1CC[C@@H](CCn2cc(C3CCCCC3)nn2)O[C@H]1CO 2.24%
Cc1ccc(C2CC(c3ccco3)n3ncnc3N2)cc1 (stereo not drawn) -12.6%
O=C(COc1ccc(Cl)cc1Cl)NCCCN1CCOCC1 -7.07%
C[C@H](CO)N1C[C@H](C)[C@H](CN(C)C(=O)CN(C)C)Oc2cc(C#CC(C)(C)O)ccc2S1(=O)=O -6.39%
CC(=O)Cn1ncc(Br)c(Br)c1=O -84.3%
Cc1cccc(NC(=O)c2ccc(C(=O)c3ccccc3)cc2)n1 -16.2%
COc1cc(/C=C/c2ccc3cccc(O)c3n2)cc(OC)c1OC 13.7%
O=C(Nc1cccc(Cl)c1)N[C@H]1CC[C@@H](CCNC(=O)C2CCC2)O[C@@H]1CO 4.92%
O=c1oc2ccccc2cc1-c1nc(-c2ccccc2)no1 8.78%
COc1ccc(C(C(=O)NC2CCCC2)N(C(=O)c2ccoc2C)c2ccc(C)cc2)cc1 (stereo not drawn) -6.06%
Cc1ccc(-c2nc3ncccc3o2)cc1NC(=O)c1ccc2c(c1)OCO2 -1.94%
O=C(C[C@@H]1C[C@@H]2c3cc(NC(=O)C4CCC4)ccc3O[C@@H]2[C@@H](CO)O1)NCc1ccccc1F -1.34%
O=C(C[C@H]1CC[C@H](NC(=O)C2CC2)[C@H](CO)O1)NCCCN1CCOCC1 -1.81%
CO[C@H]1CN(C)C(=O)c2ccc(NC(C)=O)cc2OC[C@@H](C)NC[C@@H]1C -4.7%
COC(=O)c1ccsc1NC(=O)CSc1nnnn1-c1ccccc1SC -4.59%
C[C@@H]1CN([C@H](C)CO)S(=O)(=O)c2ccc(C3=CCCCC3)cc2O[C@H]1CN(C)Cc1ccccn1 -9.05%

Reporter increase, inconclusive:
COc1ccc(C)cc1S(=O)(=O)Nc1cccc(-c2ccc(N3CCCCCC3)nn2)c1 40.8%
O=C(Nc1ccc(C2CC2(Cl)Cl)cc1)c1cccc([N+](=O)[O-])c1 (stereo not drawn) 49.3%
O=C(N/N=C/c1c[nH]c2ccccc12)c1cccc(Cl)c1 40.1%
CCn1nnnc1SCC(=O)c1ccc2c(c1)OCCO2 41.6%
N#C/C(=C/c1ccc(N2CCOCC2)o1)c1ccc(Cl)cc1 40.6%
O=C(COc1ccc(F)cc1Br)NCc1ccccn1 49.6%
CCNC(=O)C[C@@H]1CC[C@H]2[C@@H](COC[C@@H](O)CN2C(=O)Nc2ccc3c(c2)OCO3)O1 43.5%
Cc1cccnc1NC(=O)Nc1cccc(Cl)c1 48.8%
CCN(CC)S(=O)(=O)c1cc(C(=O)Nc2cc(C)[nH]n2)ccc1Cl 45.1%
Nc1nc(-c2ccccc2)nc2sc3c(c12)CCCC3 48.6%
Cc1sc(NC(=O)CS(=O)(=O)c2ccccc2)c(C#N)c1C 50.2%
CCCOC(=O)c1cc2ccccc2oc1=O 40.6%
COc1cc(Cl)ccc1OCc1cc(C(=O)N[C@H]2CCCCNC2=O)no1 44.2%
Oc1c(/C=N/c2ccccn2)sc2ccccc12 41%
COc1ccc(C2c3[nH]c4ccccc4c3CCN2C(=O)Cc2nonc2C)c(F)c1 (stereo not drawn) 41.4%
C/C(=C\C(=O)c1ccc(Br)cc1)NCc1ccccc1 45.4%
COc1cccc(C(=O)Nc2ccc(-c3nc4ccccc4o3)c(O)c2)c1 41.4%
Cc1ccc(Nc2nc(N)nc(CSCCO)n2)cc1 45.9%
O=C(Nc1nnc(C2CC2)s1)c1cncc(Br)c1 40.4%
N#Cc1c(N2CCCC2)nsc1-c1ccccc1 65.1%
O=C(Nc1nnc(SCc2ccccc2)s1)c1cccs1 45.4%
CC(C)c1onc(C(=O)Nc2ccc3c(c2)OCO3)c1[N+](=O)[O-] 40.5%
O=c1cc(-c2ccc(O)cc2)oc2cc(O)cc(O)c12 41.6%
Cc1ccc(Cn2nc(C)cc2C(=O)Nc2ccccc2Cl)cc1 43.1%
Nc1c(-c2cccs2)cnn1-c1nc(-c2ccc(F)cc2)cs1 56.3%
Cn1cncc1C#Cc1ccc2c(=O)c3ccccc3oc2c1 43.6%
Cc1cc(-c2nnc(SCc3cccnc3)o2)no1 40.4%
COc1ccc(/C=N/N=C/c2ccc(OC)cc2)cc1 48.7%
CC(=O)Nc1cccc(C(=O)OCC(=O)NCc2cc(C)c(O)c(C)c2)c1 45.6%
Cc1ccc(-c2cn3c(=O)cc(C)[nH]c3n2)cc1 40.7%
Cc1ccc(C(=O)OCC(=O)N2CCc3ccccc32)cc1 40.4%
Cc1cccc(NC(=O)C2Cc3ccccc3O/C2=N\O)c1 (stereo not drawn) 44.2%
N/C(=N\OC(=O)c1ccco1)c1ccccc1 45.3%
O=C(Nc1ccc(Br)cc1)c1cnccn1 42.1%
CC(=O)c1cccc(OCc2cc(C(=O)N3C[C@H]4CC[C@H]3C4)no2)c1 44.5%
CC1=NN(C(N)=S)C(=O)C1N=Nc1cccc(Cl)c1 (stereo not drawn) 42.4%
O=C(/C=C/c1ccc(Cl)c(Cl)c1)N1CCOCC1 44.2%
CO[C@@H]1CN(C)C(=O)c2ccc(NC(=O)Nc3cccc(F)c3)cc2OC[C@@H](C)N(C(=O)Nc2c(C)noc2C)C[C@H]1C 44.8%
COc1ccccc1-c1ccc2c(c1)[C@H]1[C@H](CCN1C(=O)CN1CCOCC1)[C@H](CO)N2C 43.9%
Nc1nonc1-c1noc(CCCN2C(=O)c3ccccc3C2=O)n1 40.7%
COc1ccc(-c2cc(C(=O)N3CCN(c4ccccn4)CC3)c3ccccc3n2)cc1 49.8%
CN(C)S(=O)(=O)c1cccc(C(=O)Nc2cc(Cl)ccc2O)c1 47%
O=C(O)c1cnn(-c2nc(-c3ccc(Br)cc3)cs2)c1C(F)(F)F 42.8%
Cc1ccc(-c2csc(NC(=O)c3ccccc3F)c2C(=O)O)cc1 57.2%
Cc1ccc(C(=O)NCC(=O)OCc2c(F)cccc2Cl)s1 40.7%
Cc1ccc(Cl)c(OCC(=O)N2CCc3ccccc3C2)c1 41.8%
CC1CCCCN1Cc1c(O)ccc2c(=O)c(-c3ccc(Cl)cc3)coc12 (stereo not drawn) 51.5%

Reporter increase, active:
Nc1ccc(OCc2ccccc2)cc1[N+](=O)[O-] 43.7%
COc1ccc(NC(=O)/C=C/c2ccccc2)cn1 42.2%
O=C(/C=C/Nc1cccc(F)c1)c1ccco1 44.5%
CCOC(=O)c1ccc(NC(=O)C23CCC(C)(C(=O)O2)C3(C)C)cc1 (stereo not drawn) 54.9%
COc1ccc(C(=O)COc2ccc(F)cc2)c(O)c1 67.8%
CC[n+]1c(/C=C/c2ccc(OC)c(OC)c2)ccc2ccccc21 79.7%
O=C(NCCc1ccc(Cl)cc1)c1ccc(Br)s1 64.3%
O=C(c1ccccc1)c1ccc(N2CCCC2)cc1 59.7%
CC(=O)NCCN=C(C)c1sc2ccccc2c1O 41%
O=C(c1ccc2c(c1)OCO2)N1CCc2ccccc2C1 45.2%
C=CCSc1ncc(-c2ccccc2)cn1 49.6%
CCOC(=O)c1c(C)nc2c(c1C)c(=O)oc1ccccc12 43.1%
C=CCNC(=O)c1ccc2c3n(nc2c1)-c1ccc(Cl)cc1CO3 53%
Cc1ccc(C(=O)COC(=O)c2cc(=O)[nH]c3ccccc23)cc1C 88.2%
c1cncc(-c2noc(-c3cccc4ccccc34)n2)c1 57.8%
Cc1ccc(C)c(C(=O)O/N=C(\N)c2ccc(Br)cc2)c1 43.3%
Nc1nc(SCc2ccccn2)c2ncn(C3CCCC3)c2n1 44.3%
O=C(Nc1ccccn1)c1sc2cc([N+](=O)[O-])ccc2c1Cl 41.9%
O=C(Nc1ccccc1OC(F)F)c1cc2c(s1)CCC2 44.4%
COC(=O)Cn1c2ccccc2c2nc3ccccc3nc21 50.4%
